Out of some 350,000 compounds screened, about 9,900 (2.8%) were called active. Inconclusive means that the source gave no clear call. Such entries were picked first, then a sample of the others. Calls come from the whole dose curve; as a rule, active = well fitted activation curve with a large enough effect; inconclusive = small, poorly fitted or top-dose-only effect; inactive = no such curve, though single readings can be large or run the other way. No potency is given beside an inconclusive call; the fits are too rough.
Assay: A quantitative high throughput screen for small molecules that induce DNA re-replication in MCF 10a normal breast cells. Note: nearly all actives have a fitted effect of over 50% in size.
Conditions: MCF 10A DNA re-replication, Hoechst nuclear intensity, 48 h; series mostly up to 46.1 µM
Potency is the fitted concentration of half-maximal effect; tags give direction and shape of the fitted curve.

Row | Compound | Potency
1 | Cc1ccc(C(=O)CSc2nnc(-c3ccco3)n2C)cc1 | inconclusive [activator, single point]
2 | NS(=O)(=O)c1ccc(CNC(=O)CC23CC4CC(CC(C4)C2)C3)cc1 | inconclusive [activator, partial curve, poor fit]
3 | Cc1cccc(N2CCN(C(=O)N3CCCCC3)CC2)c1C | inconclusive [activator, single point]
4 | CC(=O)Nc1ccc(NC(=S)NC(=O)c2ccc(C(C)(C)C)cc2)cc1 | inactive
5 | CCO/N=C(/C)c1c(O)c(C)c(-c2ccccc2)n(-c2ccccc2)c1=O | inconclusive [activator, full curve, poor fit]
6 | CN(CC(=O)Nc1ccccc1C(F)(F)F)C(=O)CSCc1ccc(Cl)c(Cl)c1 | inactive
7 | CCCCS(=O)(=O)/C=C\C=C/S(=O)(=O)CCCC | inconclusive [activator, full curve, poor fit]
8 | Cc1ccc(-c2nc(C#N)c(NCc3ccco3)o2)cc1 | inactive
9 | CCCn1nnc(NC(=O)c2ccc(-c3cccc(Cl)c3)o2)n1 | inconclusive [activator, partial curve, poor fit]
10 | Cc1ccc(C2=Nc3ccccc3N=C(c3ccco3)C2)c(O)c1 | inactive
11 | COC(=O)[C@@H](c1ccccc1)N(C)S(=O)(=O)c1cccc(S(=O)(=O)N(C)[C@@H](C(=O)OC)c2ccccc2)c1 | inconclusive [activator, partial curve, poor fit]
12 | Cc1ccc(C)c(OCC(=O)N/N=C/c2c(C)nn(-c3ccccc3)c2Cl)c1C | inconclusive [activator, full curve, poor fit]
13 | Cc1ccccc1-n1c(SCC(=O)c2c(N)n(C)c(=O)n(C)c2=O)nnc1-c1cccnc1 | inconclusive [activator, partial curve, poor fit]
14 | N#C/C(=C/c1ccco1)c1nc2ccccc2s1 | inconclusive [activator, partial curve, poor fit]
15 | Cc1ccccc1S(=O)(=O)NC1OC(=O)C(Cl)=C1Cl (centres undefined) | inconclusive [activator, single point]
16 | C=CCn1c(N)c(C(=O)OC(C)(C)C)c2nc3ccccc3nc21 | inconclusive [activator, single point]
17 | CC12CCC(=O)N1C(C(=O)NCc1ccccc1Cl)CS2 (centres undefined) | inactive
18 | Cc1cccc2cc(C#N)c(NCc3ccccc3)nc12 | active: 23.1 µM
19 | CN(CC(=O)Nc1ccc(N2CCOCC2)cc1)C(=O)CSc1ccc(F)cc1 | inactive
